Experimental data published in the supplement of paper PMC10126150.
Values marked as one replicate rest on one cluster of the flow cell; about a third of the high ones do not repeat.

System: ATP
Assay: switch fluorescence ratio, 500 uM ATP over buffer (Cy3 cluster intensity, sum of 5 cycles each) (fold (ratio)); higher = stronger signal-on switching upon ATP binding; sequences stand for … in TCGTCGGCAGCGTCAGATGTGTATAAGAGACAGTTTTTTTTTTTTTTTTTTTTTTTTT…TC
Conditions: aptamer strand: ATP DNA aptamer (quencher-CACCTGGGGGAGTATTGCGGAGGAAGG + anchor), 100 nM annealed; ATP concentration: 500 uM; one replicate
Summary of the method: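 Imaging in selection buffer was followed by imaging after 15 min with 500 uM ATP at 22 °C, for Cy3-labelled switching-strand clusters annealed to 100 nM quencher-labelled ATP aptamer on a modified Illumina MiSeq flow-cell. Five of these buffer/ATP cycles ran, separated by NaOH stripping and re-annealing. The fluorescence ratio per cluster is summed target-cycle over summed buffer-cycle Cy3 intensity, averaged per switch-domain sequence; clusters outside 100-1000 RFU were removed.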
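Note: ATP exposure 15 min at 22 °C before imaging.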

Row | Sequence | switch fluorescence ratio
1 | AGATTCGAAG | 0.957
2 | CCTGAATAGG | 0.961
3 | GAGTGGAGTA | 0.849
4 | TCGTTGTTAA | 1.03
5 | AATCGGATAT | 1.03
6 | ACCATGAATT | 1.03
7 | GTAGTTCGAG | 0.996
8 | TTCGTTGACA | 0.997
9 | CGTGTCGGCC | 1.02
10 | TTCCACAGGC | 1.63
11 | AAGTATATAA | 0.994
12 | CTGACTGGGG | 1
13 | ATTTATTCG | 0.935
14 | TGGAGAGTGG | 0.967
15 | GTCCGAGGTC | 1.06
16 | ATAAATCCGG | 1.03
17 | TGTTACTCTA | 1.07
18 | AAGGAATAG | 1.12
19 | TTGCTATTGT | 1.01
20 | GAGAGTACCT | 1.14
21 | GACCGAGTAG | 0.972
22 | TGTTACGTGC | 1.03
23 | GATTCCGTAA | 1.37
24 | GGGGGCTACA | 1
25 | GCTGAGCCAT | 1.03

Row | Sequence | switch fluorescence ratio
26 | TCTAACGGG | 1.04
27 | TCAGTAATGG | 1.13
28 | GCCACTCATG | 0.997
29 | ACAAGGCGAT | 0.988
30 | GAGTACCTGA | 1.07
31 | GGAGTCATAA | 1.08
32 | AGGGTGAC | 0.986
33 | GTATCTTAAA | 1.01
34 | AATCGCAAAA | 1.08
35 | CGCTGATCGT | 1.03
36 | ACGCCCATTG | 1.17
37 | ATATTTAGGC | 1.04
38 | GAGTGGGGCC | 1.01
39 | CAGTAAACCG | 0.988
40 | GCGCTGTAAC | 1.32
41 | TGGCAAAGAT | 0.984
42 | GGGGCGCAGA | 0.993
43 | AACATATCGT | 1.1
44 | ACCTCTTGTG | 1.01
45 | ATATGTAATT | 0.987
46 | TGATATTGCG | 0.951
47 | ATTGTTGATT | 1.04
48 | CATTGTAGCT | 1.02
49 | GGATGGAATT | 0.974
50 | GGAGCTTGAT | 1.03

Row | Sequence | switch fluorescence ratio
51 | GGTGTAGTGT | 1.03
52 | GTAACCAGCT | 0.999
53 | CTGTTAAACT | 1.02
54 | CCCGCGGGGC | 1.21
55 | AAGATGCCCT | 1.03
56 | TAGGCTGTCA | 0.98
57 | GACCGGACCC | 1.21
58 | CAATTTTAGT | 0.977
59 | ATGGAGCGTT | 1.02
60 | AGTCCCAAAT | 0.992
61 | TCCTCGTAGT | 1.5
62 | TTGCATACTT | 1.04
63 | TTGCGCTGTT | 0.985
64 | GGAGTAGATC | 1.06
65 | AAAACGGAAT | 1.02
66 | TATTTTCACG | 1.02
67 | CGCCTACTCA | 1.25
68 | CGCTGGCATC | 1.08
69 | AATTGGGCAA | 1.04
70 | TCGCGATTCT | 1.2
71 | CGAAGGTAGT | 0.982
72 | GATCGCTGGG | 1.03
73 | CGTGGAAAGC | 1.01
74 | TTTGCATGGT | 0.993
75 | GCCAATCTGT | 1.01

Row | Sequence | switch fluorescence ratio
76 | AAACGCAGCC | 1.39
77 | TCTGTGAGTT | 0.996
78 | CTATTCGGTA | 1.04
79 | AGATAAAATA | 1
80 | AGTGGCGTAT | 1.02
81 | CTGAGAAGTA | 0.983
82 | AAACAAGTTT | 0.981
83 | ATAGGAAGGT | 1.04
84 | TATAAGATCA | 1
85 | TAGTACGCCT | 1
86 | TGAGTCCCCT | 1.03
87 | TACCCCGTTT | 0.989
88 | AGATGATCGA | 0.975
89 | AGTTCGGTGA | 1.04
90 | ACCAATTGAT | 1.05
91 | GCAATCCACA | 1.19
92 | ATATACGACA | 1.3
93 | CCACCTTCGA | 1.2
94 | TTACCATTTT | 1.04
95 | TCCGGGAGCC | 1.1
96 | GTGTGGGAAA | 0.999
97 | TGTCTTCGTT | 0.958
98 | AAGATGGTAT | 0.985
99 | ATGGACGGCC | 0.992
100 | GTGATCAATT | 0.943

Row | Sequence | switch fluorescence ratio
101 | CCGAAGATAT | 2.21
102 | CAGTCGATCG | 0.965
103 | TGCATATTGT | 1
104 | CGCCGGCGCC | 1.03
105 | TAAGGACTCC | 0.969
106 | ATGTCTATTG | 0.995
107 | GAGTGGCACT | 0.964
108 | ATAAAAGGGA | 0.965
109 | GTTTGTTTTG | 0.972
110 | ACCCGTTGCT | 1.07
111 | CATCCCATCT | 1.12
112 | GGAACCCGGC | 0.988
113 | GACTTTAATT | 1.03
114 | GCTAATTTCT | 1.03
115 | ATCCGCCTG | 1.23
116 | GGAACCGTGC | 1.32
117 | CTCGACGGAG | 1.01
118 | TTTGCTACAT | 0.998
119 | ACCGACGGCG | 1.27
120 | AGGATTGGTC | 0.924
121 | GGTTGGTTAT | 1.06
122 | ATCTCCGAGG | 1.14
123 | AAGGCACTAC | 2.13
124 | GGAAGAAACT | 0.995
125 | TTAACACTC | 1.02

Row | Sequence | switch fluorescence ratio
126 | TCTAATTCCC | 0.97
127 | GACCCGAAAC | 1.27
128 | TCTTCAGAGT | 0.986
129 | AACCGCGCAA | 2.88
130 | GCGGCATTAA | 1.06
131 | CTGGCCATGT | 1.02
132 | TAATATTGCT | 1.35
133 | AGACTACACC | 1.3
134 | ACGGCTCCCG | 1.01
135 | CGGTGGAGTC | 0.992
136 | GTAAAACGTA | 1.08
137 | TATGAGATCT | 1
138 | GCGATTTGTT | 1
139 | GAAGTAGGTA | 0.997
140 | ACTCGAACAC | 1.3
141 | CAGCTGTGGC | 0.986
142 | GGGTGTAGGG | 1.03
143 | TTTGCAGCCT | 1.02
144 | GCGGGAGAAC | 1.03
145 | GGTTGCAGTG | 1.07
146 | CAGGACTAAA | 1.01
147 | TTTCCATACC | 1.05
148 | AGTAGTGGTT | 0.935
149 | GTGTGGGTG | 0.982
150 | AGCTATGTT | 1.03

Row | Sequence | switch fluorescence ratio
151 | TAAATTGGCT | 1.06
152 | TCGTCGATGC | 1.23
153 | GTGGAATGAC | 0.986
154 | CTTAACCGTC | 1.04
155 | TGTCTCATTC | 0.983
156 | CCGTAACC | 1.75
157 | CTTACATTCT | 1.11
158 | AAAGAGCCGC | 1.05
159 | TGGATGGCGG | 1.07
160 | CCTAGCTAGA | 1.09
161 | TTATCTTTTG | 0.965
162 | CTACGGTGAT | 1.75
163 | AGCGCGTTCC | 1.14
164 | TTGAGAACAG | 1.02
165 | CCTTGCTCAG | 1.99
166 | TCCGGTGGTT | 1.39
167 | GTAAATCACT | 1.02
168 | GAGCCCGGTT | 0.989
169 | GGAGACGCAA | 3.53
170 | GTCTCCGTCA | 1.04
171 | TCTTGTGGGA | 1
172 | TCTGGGGCAT | 1.1
173 | GATTTCTTTT | 1
174 | TCTCGTTCGC | 1.07
175 | CAGGCATCGT | 0.984

Row | Sequence | switch fluorescence ratio
176 | AAACTCTTGC | 1.52
177 | ATGTGCTACG | 1.03
178 | GTCGTTACCA | 1.01
179 | ATTCACATGC | 1.24
180 | TCATATTACG | 1.05
181 | CATGAGATGA | 0.971
182 | GCGAGACAGG | 1.13
183 | CAAACAACGA | 1.19
184 | TCCAGGTCAT | 1.07
185 | CTAAAAGAAT | 0.956
186 | TAGCTCGATC | 1.02
187 | GAGAGTGCCT | 0.975
188 | ACTAACTGCT | 1.07
189 | GGAATCAATT | 1.05
190 | GTTCTGCTGG | 0.966
191 | GACTGACGTC | 1.07
192 | AGGTGAAATG | 1.01
193 | CGTATGTCGG | 0.91
194 | GCCCCGTCTT | 1.02
195 | GTGTTGATGT | 1
196 | ATTAGTCCAA | 0.97
197 | TTTCGGTAGC | 0.993
198 | GCGGCATGGC | 0.984
199 | CATGCCATCA | 0.976
200 | TGAACGCCTC | 1.31
